Reference: PubChem BioAssay AID1461 (National Center for Advancing Translational Sciences (NCATS), 2008)
Hit rate of the full screen: of about 220,000 compounds, about 2,300 (1%) were called active. This list was built around the results that the source calls inconclusive (neither active nor inactive); the mix of calls is not that of the screen. Calls come from the whole dose curve; as a rule, active = well fitted inhibition curve with a large enough effect; inconclusive = small, poorly fitted or top-dose-only effect, or effect the other way; inactive = no such curve, though single readings can be large or run the other way. No potency is given beside an inconclusive call; the fits are too rough.

These molecules were tested against Neuropeptide S receptor (Homo sapiens) (UniProt Q6W5P4) (assay: qHTS Assay for Antagonists of the Neuropeptide S Receptor: cAMP Signal Transduction). Conditions: CHO-NPSR cells, cAMP TR-FRET, antagonist mode; series mostly up to 38.3 µM.
Note: nearly all actives have a fitted effect of over 50% in size.
Potency is the fitted concentration of half-maximal effect; tags give direction and shape of the fitted curve.

UniProt Q6W5P4, sequence (Q6W5P4 whole entry, looked up): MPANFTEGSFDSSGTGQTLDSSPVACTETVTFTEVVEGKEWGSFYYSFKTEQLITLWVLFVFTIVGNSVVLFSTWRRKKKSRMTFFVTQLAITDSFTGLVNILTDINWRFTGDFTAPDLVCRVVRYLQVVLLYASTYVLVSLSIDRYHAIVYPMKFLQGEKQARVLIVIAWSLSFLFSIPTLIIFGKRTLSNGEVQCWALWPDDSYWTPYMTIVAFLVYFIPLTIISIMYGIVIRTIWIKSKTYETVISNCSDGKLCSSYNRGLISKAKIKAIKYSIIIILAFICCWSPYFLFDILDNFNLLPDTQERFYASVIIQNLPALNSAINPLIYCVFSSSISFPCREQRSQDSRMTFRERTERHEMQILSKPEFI

Row | SMILES | Potency
1 | CCOc1cc(-c2c(C#N)c(N)nc3c2CCCC3)ccc1O | inactive
2 | CN(C)S(=O)(=O)c1ccc(C(=O)OCC(=O)Nc2ccccc2OC(F)F)cc1 | inactive
3 | Cc1ccc(NS(=O)(=O)c2sc3ccc(Cl)cc3c2C)cc1 | inconclusive [activator, single point]
4 | O=S(=O)(N/N=C/c1cn(Cc2ccccc2)c2ccccc12)c1ccccc1 | inconclusive [inhibitor, single point]
5 | CN(C)CCCNC(=O)/C(=C\C=C\c1ccccc1)NC(=O)c1ccc([N+](=O)[O-])cc1 | inactive
6 | O=C(c1ccc(Cl)s1)N1CCCC1 | inactive
7 | CN(C)c1ccc(N/C=C/C(=O)C(C)(C)C)cc1 | inconclusive [inhibitor, single point]
8 | COc1ccccc1CNCC(O)Cn1c2ccccc2c2ccccc21 (stereo unspecified) | inconclusive [inhibitor, single point]
9 | O=Cc1cc2ccccc2nc1SCc1ccc(Cl)cc1 | inconclusive [activator, full curve]
10 | CC(C)[C@H](NC(=O)Nc1ccc(S(N)(=O)=O)cc1)C(=O)O | inconclusive [inhibitor, single point]
11 | CCSc1n[nH]c(=S)s1 | inactive
12 | Cc1sc2nc(SCC(=O)NCCOCCO)n(C)c(=O)c2c1C | inconclusive [activator, full curve, poor fit]
13 | Cc1onc(-c2c(Cl)cccc2Cl)c1C(=O)N1CCc2ccccc2C1 | inconclusive [inhibitor, partial curve]
14 | COc1ccc(-c2ccc(OC)c([C@H]3[C@H]4C=CC[C@@H](C)[C@@H]4C(=O)N3Cc3ccccc3)c2)cc1OC | inconclusive [inhibitor, single point]
15 | Cc1ccc(-c2[nH]ncc2CNCCc2cnn(-c3ccccc3)c2)cc1C | inconclusive [inhibitor, single point]
16 | CC(C)CC(NC(=O)c1ccc(Cl)cc1)C(=O)OCC(=O)c1ccc2c(c1)NC(=O)CO2 (stereo unspecified) | active: 10 µM
17 | CCOC(=O)c1ccc(NC(=O)CSc2nc3c(c(=O)n2-c2ccccc2OC)SCC3)cc1 | inactive
18 | Cc1ccccc1-c1nnn(CC(=O)c2ccc(S(=O)(=O)N3CCCC3)cc2)n1 | inconclusive [inhibitor, partial curve]
19 | O=C(/C=C/c1ccc2c(c1)OCCO2)c1ccccc1 | inactive
20 | Cc1ccc(O)c(C(=O)CC(=O)c2cccc(F)c2)c1 | inconclusive [inhibitor, single point]
21 | CS(=O)(=O)c1cnc(-c2ccccc2)nc1-c1ccc(Cl)c(Cl)c1 | inconclusive [inhibitor, single point]
22 | O=C(Nc1ccc(C(=O)O)cc1)/C(=C\C=C\c1ccccc1)NC(=O)c1cccc(Br)c1 | inactive
23 | CCN(CC)S(=O)(=O)c1cc(C(=O)Nc2nncs2)c(Cl)cc1Cl | inconclusive [inhibitor, partial curve]
24 | CC(=O)N1N=C(c2ccc(Cl)cc2)OC1c1ccc(C(C)C)cc1 (stereo unspecified) | inconclusive [inhibitor, single point]

Row | SMILES | Potency
25 | CC1CCN(c2[nH]c(=S)c(C#N)c3c2CCCC3)CC1 | inactive
26 | Cc1cc(C)c(OC2(c3ccccc3)OC(=O)c3ccccc32)c(C)c1 (stereo unspecified) | inconclusive [inhibitor, partial curve]
27 | CC(=O)c1c(N2CCOCC2)nc(=S)n(Cc2ccccc2)c1C | inconclusive [activator, single point]
28 | O=C(CC(NC(=O)c1ccccc1Cl)c1ccccc1)NCCc1ccc(Cl)cc1 (stereo unspecified) | inactive
29 | COCCCn1cnc2c(c1=O)c1nc3ccccc3nc1n2CCc1ccccc1 | inconclusive [inhibitor, partial curve]
30 | CCOC(=O)/C(=N/Nc1ccc(C)cc1)S(=O)(=O)c1ccc(Cl)cc1 | inconclusive [inhibitor, single point]
31 | CCOC(=O)c1c(-c2ccccc2)csc1NC(=O)CSc1nnnn1C | inconclusive [inhibitor, partial curve]
32 | COc1cc(C#N)ccc1OCC(=O)Nc1cccc(S(=O)(=O)N2CCCC2)c1 | inactive
33 | CCn1ncc(C2=NOC(C(=O)NCc3ccc(Cl)cc3)C2)c1C (stereo unspecified) | inconclusive [activator, full curve]
34 | CN1CCN(C(=O)c2cc(COc3c(F)cccc3F)on2)CC1c1ccccc1 (stereo unspecified) | inconclusive [activator, single point]
35 | COc1ccc(-c2nc(-c3ccccc3OC)no2)cc1OC | inconclusive [inhibitor, partial curve, poor fit]
36 | Cc1ccc(C)c(Cn2nnc3c(=O)[nH]c(C4CCN(C(=O)c5cccs5)CC4)nc32)c1 | inconclusive [inhibitor, partial curve, poor fit]
37 | CCCCCc1cc(=O)oc2c(C(CCN3CCCC3)c3ccc(N(C)C)cc3)c(OC)cc(OC)c12 (stereo unspecified) | inconclusive [inhibitor, single point]
38 | COc1ccc(N2C(=O)[C@H]3[C@@H](C2=O)C2c4ccccc4C=NN2[C@H]3C(=O)C(C)(C)C)cc1 (stereo partly specified) | inactive
39 | C=CCc1c(C)nc(SC)nc1Nc1ccc(C(C)=O)cc1 | inactive
40 | CCOc1cc(N2CCOCC2)c(OCC)cc1NC(=O)c1ccc(S(C)(=O)=O)cc1 | inactive
41 | O=C(NCc1nc2ccccc2[nH]1)C1=C[C@H](c2ccc(Br)cc2)C[C@H](OCc2ccc(CO)cc2)O1 | inconclusive [activator, single point]
42 | COc1ccc(-c2cnc(SCC(=O)Nc3ccc4c(c3)OCO4)n2Cc2ccco2)cc1 | inconclusive [inhibitor, single point]
43 | CCn1cc(C(=O)OCC(=O)c2cc(C)n(-c3cccc(C(F)(F)F)c3)c2C)c(=O)c2ccc(C)nc21 | inconclusive [inhibitor, full curve, poor fit]
44 | Cn1c(N)c(C(=O)COC(=O)C(Cc2ccccc2)NC(=O)c2ccccc2)c(=O)n(C)c1=O (stereo unspecified) | inconclusive [inhibitor, single point]
45 | COc1ccc(-n2c(C)c([N+](=O)[O-])c3ccc(O)c(CN(C)C)c32)cc1 | inactive
46 | COc1cccc(NC(=S)Nc2cc(C)cc(C)n2)c1 | inconclusive [activator, single point]
47 | CCOc1ccc(NC(=O)CSc2nc(C3CC3)nc3ccccc23)cc1 | inconclusive [inhibitor, single point]
48 | COCCNC(=O)CSc1nnc2c(Cl)cc(Cl)cn12 | inactive

Row | SMILES | Potency
49 | CN(C(=O)COc1ccccc1C(=O)NCCOc1ccccc1)c1ccccc1 | inconclusive [inhibitor, single point]
50 | Cc1cccc(-c2cc3c(nn2)-c2ccccc2C3=O)c1 | inactive
51 | COc1cc(NC(=S)NC(=O)c2c(OC)cccc2OC)ccc1NC(=O)c1cccs1 | inactive
52 | CC1=C(C)/C(=N\OS(=O)(=O)c2ccccc2)C=CC1=O | active: 5.01 µM
53 | Cc1cc(Cl)ccc1OCCCC(=O)N1CCCc2ccccc21 | inconclusive [inhibitor, single point]
54 | Cc1ccccc1OCc1nnc(SCC(=O)O)n1Cc1ccccc1 | inactive
55 | O=C(COC(=O)c1ccccc1NC(=O)c1ccco1)NCCC1=CCCCC1 | inconclusive [inhibitor, partial curve]
56 | COC(=O)CSc1nc2ccc(NC(=O)CSc3nnnn3Cc3ccccc3)cc2s1 | inconclusive [inhibitor, single point]
57 | CC12CC(NC(=O)N1c1ccc(C(=O)N3CCN(c4ccccn4)CC3)cc1)c1ccccc1O2 (stereo unspecified) | inconclusive [inhibitor, single point]
58 | Cc1ccccc1NS(=O)(=O)c1cc(C(=O)NCCC2=CCCCC2)ccc1C | inconclusive [inhibitor, single point]
59 | Cc1cc(=O)[nH]c(NN=C(CC(C)C)CC(C)C)n1 | inactive
60 | Cc1cccc2cc(C#N)c(SCC#N)nc12 | inconclusive [inhibitor, single point]
61 | O=C(NCCSCc1ccco1)Nc1cc(Cl)cc(Cl)c1 | inactive
62 | Cc1n[nH]c(C)c1S(=O)(=O)Nc1ccc2c(c1)OCCO2 | inconclusive [inhibitor, single point]
63 | COc1ccc(NC(=S)Nc2cccc(C(F)(F)F)c2)c(C)c1 | inactive
64 | Cc1ccccc1N1C(=O)CC(Sc2nnc(-c3ccccc3)o2)C1=O (stereo unspecified) | inconclusive [inhibitor, single point]
65 | O=C(Cc1ccc(Cl)c(Cl)c1)Nc1cccc2ncccc12 | inactive
66 | Cn1ccnc1Sc1nc2c(c(=O)n(C)c(=O)n2C)n1C | inconclusive [inhibitor, single point]
67 | C=C(C)C(=O)OC1(C(F)(F)F)Oc2cc(C)ccc2NC1=O (stereo unspecified) | active: 10 µM
68 | COC(=O)c1c(NC(NC(=O)C(C)C)C(Cl)(Cl)Cl)sc2c1CCC2 (stereo unspecified) | inconclusive [inhibitor, single point]
69 | Cc1cc(F)ccc1S(=O)(=O)Nc1ccccc1C(=O)Nc1ccccc1-c1nc2ccccc2[nH]1 | inconclusive [inhibitor, single point]
70 | CCSc1cc(C)nc2ncnn12 | inconclusive [inhibitor, single point]
71 | CCc1ccc(-c2csc(NC(=O)C3CC(=O)N(c4ccc5c(c4)OCCO5)C3)n2)cc1 (stereo unspecified) | inactive
